PubChem BioAssay AID493208 (National Center for Advancing Translational Sciences (NCATS), 2011)
About 340 (0.77%) of roughly 44,000 compounds were called active. About 5% were inconclusive and are not listed. Calls come from the whole dose curve; as a rule, active = well fitted inhibition curve with a large enough effect; inconclusive = small, poorly fitted or top-dose-only effect; inactive = flat fitted curve, though single readings scatter. This is one part of the list.

Assay: Acumen qHTS Assay for Inhibitors of the mTORC1 Signaling Pathway in MEF (Tsc2-/-, p53-/-) Cells: Sytravon;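 note: plate controls were DMSO for no effect and rapamycin for full effect; nearly all actives have a fitted effect of over 50% in size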
Conditions: phospho-rpS6 immunofluorescence/PI, 24 h; series mostly up to 38.3 µM; activity change, negative = inhibition: at the top concentration
In short: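 Tsc2-/-, p53-/- mouse embryonic fibroblasts (empty-vector line) exposed to compound 24 hrs at 37 C, fixed, immunostained for phospho-rpS6 and counterstained with propidium iodide. Acumen laser scanning gives % positive cells from Alexa 488/PI ratio, thresholded using 7.5 nM rapamycin; PI count gives viability.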

SMILES	activity change, negative = inhibition
COc1ccc(-n2cc(C(=O)OCc3ccc(Cl)cc3)c3ccccc3c2=O)cc1	inactive: -2.36%
CN(C)c1ccc(C(CNS(=O)(=O)c2ccc(F)cc2)N2CCOCC2)cc1 (configuration not stated)	inactive: 2.65%
Cc1c(C(=O)OC2CCCCCC2)[nH]c2c1C(=O)CC(c1ccc(N(C)C)cc1)C2 (configuration not stated)	inactive: -4.49%
COc1cc(OC)cc(C(=O)Nc2cc(-c3nc4cccnc4s3)ccc2C)c1	inactive: 5.2%
CCC(C(=O)Nc1ccc(C(=O)OC)cc1)n1nc(-c2ccc(C)c(C)c2)ccc1=O (configuration not stated)	inactive: -11.2%
COc1ccc(NC(=O)C2CCN(S(=O)(=O)c3ccc4c(c3)CCCC(=O)N4)CC2)c(OC)c1	inactive: 1.12%
CCOc1ccc(Nc2sc(C(=O)c3cccc(OC)c3)c(N)c2S(=O)(=O)c2ccccc2)cc1	inactive: -0.568%
Cn1c(=O)c(=O)n(C)c2cc(S(=O)(=O)N3CCCC3C(=O)Nc3ccc(F)cc3)ccc21 (configuration not stated)	inactive: -5.32%
COc1ccc(S(=O)(=O)N(CC(=O)NCCSCc2ccccc2)c2ccc(C)cc2)cc1	inactive: -23.7%
CCOc1ccc(CNC(=O)Cn2ccc3cc(S(=O)(=O)N4CCCCC4)ccc32)cc1	inactive: -1.75%
COc1ccc(S(=O)(=O)N(Cc2nc(-c3ccc(Cl)cc3)no2)C2CCCCC2)cc1	inactive: -5.34%
Cc1ccc(S(=O)(=O)NCc2ccc(C(=O)NCCc3cccc(C)c3)cc2)cc1	inactive: -13.3%
Cc1ccc(Cn2c(=O)n(-c3cc(C)cc(C)c3)c(=O)c3oc4ccccc4c32)cc1	inactive: 1.39%
O=C(c1ccccc1Br)N1CCC(c2nc3ccccc3o2)CC1	inactive: 1.85%
O=S(=O)(c1ccc(-n2cnnn2)cc1)N1CCN(c2cccc(C(F)(F)F)c2)CC1	inactive: 3.18%
Cc1oc(C)c2c(=O)cc(-c3ccc4c(c3)OCO4)cc(OC(=O)c3cccc(Cl)c3)c12	inactive: -0.0592%
COc1ccccc1NC(=O)C(Cc1ccccc1)NS(=O)(=O)c1cccc2nsnc12 (configuration not stated)	inactive: 0.3%
COc1cc(Cl)c(C)cc1NC(=O)c1sc2nc(C)cc(C)c2c1N	inactive: 0.592%
Cc1ccsc1CN(C(=O)COc1cccc(C)c1C)C1CCS(=O)(=O)C1 (configuration not stated)	inactive: 1.98%
COc1cc(C(=O)N(Cc2cccnc2)c2nc3cc(C)c(C)cc3s2)cc(OC)c1OC	inactive: -10.8%
CN1C(=O)C(C)(C)c2cc(S(=O)(=O)N3CCCC3C(=O)Nc3ccc(F)cc3)ccc21 (configuration not stated)	inactive: 4.59%
CCCCOC(=O)c1cccc(NC(=O)/C=C/c2ccccc2Cl)c1	inactive: 14.8%
COc1ccc(OC)c(NC(=O)CSc2nc3ccccc3c(=O)n2CCC(=O)NC2CCCCC2)c1	inactive: -1.77%
O=C(Cn1c(SCC(=O)Nc2ccc(F)cc2)nc2ccccc21)NCc1ccccc1Cl	inactive: -9.35%

SMILES	activity change, negative = inhibition
O=C(CCC1N=C2c3ccccc3N=C(SCC(=O)Nc3ccc(F)cc3)N2C1=O)NCc1cccs1 (configuration not stated)	inactive: -5.88%
Cc1cccc(NC(=O)c2ccc(CNS(=O)(=O)c3ccc4c(c3)C(C)(C)C(=O)N4C)cc2)c1	inactive: -0.834%
Cc1ccccc1C(=O)N(Cc1ccc(N(C)C)cc1)CC1CCCO1 (configuration not stated)	inactive: -7.04%
Cc1ccc(N2CCN(C(=O)NCc3noc4ccc(C)cc34)CC2)c(C)c1	inactive: -5.02%
COc1ccccc1NC(=O)CSC1=Nc2ccccc2C2=NC(CC(=O)NCc3ccc4c(c3)OCO4)C(=O)N12 (configuration not stated)	inactive: -6.03%
CCOC(=O)c1noc2ncnc(NCc3ccccc3OC)c12	inactive: 4.55%
COc1ccccc1N=C1SC(C(=O)Nc2ccccc2OC)CC(=O)N1C (configuration not stated)	inactive: 0.459%
O=C(NCCOCCn1c(=O)oc2ccccc21)Nc1cccc(Cl)c1	inactive: -2.43%
COC(=O)c1ccccc1NC(=O)C1CCCN(c2ncnc3onc(C)c23)C1 (configuration not stated)	inactive: 0.419%
Cc1ccc(CNC(=O)c2sc3nc4n(c(=O)c3c2C)CCCCC4)cc1	inactive: 0.712%
CC(C)c1ccc(NC(=O)c2ccc3c(O)c(S(=O)(=O)c4ccccc4)c(=O)[nH]c3c2)cc1	inactive: 1.61%
COc1cc(OC)c(N(C)C(=O)c2cc3c(=O)oc4ccccc4c3s2)cc1Cl	inactive: 0.0992%
O=c1c2ccccc2n2c(-c3ccccc3F)nnc2n1CCc1ccccc1	inactive: 2.24%
Cc1ccc(C(=O)N(c2ccc(C)cc2)S(=O)(=O)c2ccc(Cl)cc2)cc1	inactive: 8.97%
Cc1ccc(-n2nc(C(=O)N(C)Cc3ccccc3)c3c4ccccc4n(C)c3c2=O)cc1	inactive: 10.6%
Cc1ccc(-n2c(=O)c3c(c4cc(C)ccc4n3C)n(Cc3ccc(F)cc3)c2=O)cc1	inactive: -7.29%
Cc1ccc(NC(=O)C(Cc2ccccc2)N2Cc3ccccc3C2=O)cc1Cl (configuration not stated)	inactive: -18.2%
CCCCNC(=O)CCn1c(=O)c2cccn2c2cccnc21	inactive: -0.415%
CCN(C(=O)c1c(C)oc2ncn(CC(C)C)c(=O)c12)c1cccc(Cl)c1	inactive: -0.643%
COc1ccc(C)cc1NC(=O)c1cc(S(=O)(=O)N2CCc3ccccc3C2)ccc1F	inactive: -1.34%
Cc1oc(-c2ccc(C(=O)NCc3ccccc3Cl)cc2)nc1CN1CCc2ccccc21	inactive: -25.8%
CCCn1c(CCC(=O)Nc2ccc(C)c(Cl)c2)nc2cccnc21	inactive: -1.74%
O=C(CC1N=C2c3ccccc3N=C(SCc3cccc(Cl)c3)N2C1=O)NCCc1ccccc1 (configuration not stated)	inactive: -2.76%
